{"source": "PubChem BioAssay (NCATS)", "note": "Inconclusive means that the source gave no clear call. Such entries were picked first, then a sample of the others. A potency beside an inconclusive call is a rough fit, not a confirmed value. Activity calls are given as the source filed them. The call rests on the fitted dose curve; in most records, active means well fitted activation curve with a large enough effect in the signal ratio, with a control signal flat (not every such curve was filed as active); inconclusive means small, poorly fitted or top-dose-only effect, or effect the other way, or a change in a side signal; inactive means flat fitted curve, though single readings scatter; the % refers to the signal ratio. Potency means the concentration at half of the fitted maximal effect; tags describe the fitted curve by direction and shape or compound fluorescence and quenching.", "data": [{"test": "qHTS Assay for Identification of Small Molecule Agonists for Hypoxia Response Element Signaling Pathway (AID 914); on activation: top concentration of the series differs between compounds; % of control where 0% means no effect", "conditions": "ME-180 HRE-bla reporter, beta-lactamase ratio, CoCl2, 17 h; activation: stronger effect = higher value", "procedure,_shortened": "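HRE-bla ME-180 assay for agonist-like enhancement of an EC50 CoCl2 stimulus: 17 h at 37 degrees Celsius, CCF4 for 2.5 h, ratiometric 460/530 nm signal converted to %Activity and fitted to AC50.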", "values": [{"smiles": "OCCCNCc1ccncc1", "activation": "inactive: 1.84%"}, {"smiles": "CCC(=O)Nc1cc(-c2nn(C)c(=O)c3ccccc23)ccc1N1CCCCC1", "Potency": "inconclusive: 10 µM [activator, partial curve]"}, {"smiles": "COCCNC(=O)C(C#N)c1nc2ccccc2nc1N1CCN(Cc2ccc3c(c2)OCO3)CC1", "note": "(configuration not stated)", "activation": "inconclusive: 28.1%"}, {"smiles": "CCOC(=O)C1(C(=O)OCC)C(c2ccccc2)CC(O)N1C(C)=O", "note": "(configuration not stated)", "activation": "inactive: 15.4%"}, {"smiles": "O=c1[nH]c(-c2ccccn2)nc2ccccc12", "Potency": "inconclusive: 7.94 µM [inhibitor, partial curve]"}, {"smiles": "S=C(Nc1ccc2cn[nH]c2c1)Nc1ccc2cn[nH]c2c1", "Potency": "inconclusive: 2.51 µM [inhibitor, partial curve]"}, {"smiles": "COc1cccc(C2C(C(=O)c3cccs3)=C(O)C(=O)N2c2cc(C)on2)c1", "note": "(configuration not stated)", "Potency": "inconclusive: 12.6 µM [inhibitor, single point]"}, {"smiles": "CC1(c2cnc(Nc3ccccc3)s2)CCC(=O)O1", "note": "(configuration not stated)", "activation": "inconclusive: -29.1%"}, {"smiles": "CC(C)Cc1nc2n[nH]c(N)c2c2c1CCC2", "Potency": "inconclusive: 3.16 µM [activator, full curve]"}, {"smiles": "O=C(Nc1cccc(F)c1)N1CC2(CCN(S(=O)(=O)c3ccccc3)CC2)C1", "activation": "inconclusive: -28.3%"}, {"smiles": "C=CCn1cnc2c(c1=O)c1nc3ccccc3nc1n2-c1ccc(Cl)cc1", "Potency": "inconclusive: 0.1 µM [activator, full curve, poor fit]"}, {"smiles": "CN(C)c1ccc(C=Nc2cnn(C)c2C(N)=O)cc1", "activation": "inactive: -1.16%"}, {"smiles": "CCn1c(-c2ccco2)n[nH]c1=S", "activation": "inactive: 13.1%"}, {"smiles": "O=C1N[C@@H](Cc2cnc[nH]2)C(=O)N2CCC[C@@H]12", "activation": "inconclusive: -28.7%"}, {"smiles": "Clc1cc2c(c(CSC3=NCN(CC4CC4)CN3)c1)OCOC2", "activation": "inconclusive: 5.71%"}, {"smiles": "C=C(c1ccc(OCCO)cc1)c1ccc(OCCO)cc1", "activation": "inconclusive: 18.6%"}, {"smiles": "CCCCc1nc2n[nH]c(N)c2c2c1CCCC2", "activation": "inconclusive: 24.6%"}, {"smiles": "CCCOc1cccc(C2/C(=C(/O)c3ccc(F)cc3)C(=O)C(=O)N2CCN(C)C)c1", "note": "(configuration not stated)", "activation": "inconclusive: -37%"}, {"smiles": "COc1ccccc1-c1cc(-c2cc(Cl)ccc2O)n[nH]1", "activation": "inconclusive: 108%"}, {"smiles": "Nc1ccn([C@H]2O[C@H](CO)[C@@H]3[O][Sn]([c]4ccccc4)([c]4ccccc4)[O][C@H]32)c(=O)n1", "Potency": "inconclusive: 0.316 µM [inhibitor, full curve]"}, {"smiles": "CCOC(=O)c1cc(CC)sc1NC(=O)C1CC1", "Potency": "inconclusive: 1.58 µM [activator, full curve, poor fit]"}, {"smiles": "Cc1cc(C)n(C(=O)CNC(=O)c2ccc3c(c2)OCCO3)n1", "activation": "inactive: -10.8%"}, {"smiles": "CC(C)C1C(C#N)=C(N)Oc2n[nH]c(C(C)(C)C)c21", "note": "(configuration not stated)", "activation": "inconclusive: -31.9%"}, {"smiles": "Cn1c(=O)c2[nH]c(CCCCc3nc4ccccc4[nH]3)nc2n(C)c1=O", "activation": "inconclusive: 4.61%"}, {"smiles": "COc1ccc(-c2nnc3sc(COc4ccccc4)nn23)cc1", "Potency": "inconclusive: 10 µM [inhibitor, partial curve]"}, {"smiles": "O=C(CCN1CCOCC1)Nc1ccc(F)cc1F", "activation": "inconclusive: 11.2%"}, {"smiles": "O=C(O)/C=C\\C(=O)Nc1ccccn1", "activation": "inactive: 4.82%"}, {"smiles": "Cn1cccc1C(=O)N1CCC2(CC1)CN(C(=O)Nc1cccc(F)c1)C2", "Potency": "inconclusive: 3.98 µM [inhibitor, single point]"}, {"smiles": "CO[C@H]1COC(=O)[C@H](C)COC(=O)[C@H](C)NC(=O)C/C=C\\[C@H]1C", "activation": "inactive: 5.98%"}, {"smiles": "CN(C)Cc1ccc(O)c(CN(C)C)n1", "activation": "inactive: 2.88%"}, {"smiles": "C[C@@H](c1ccccc1)N1C(=O)[C@H]2[C@@H]3[C@H](O)C=CC(=O)[C@H]3CC[C@H]2C1=O", "activation": "inconclusive: -22.1%"}, {"smiles": "COc1ccc(C(=O)OC(C)CN2CCN(C)CC2)cc1OC", "note": "(configuration not stated)", "activation": "inactive: 7.74%"}, {"smiles": "Cc1ccc(S(=O)(=O)N(CC(O)CN2CCOCC2)c2cc(Cl)ccc2Cl)cc1", "note": "(configuration not stated)", "activation": "inactive: 11.1%"}, {"smiles": "CC1(C)Cc2c(C#N)c(N3CCOCC3)nc(Cc3ccccc3)c2CO1", "Potency": "inconclusive: 12.6 µM [inhibitor, partial curve, poor fit]"}, {"smiles": "COc1ccc2c(c1)c(C(=O)CN1CCOCC1)c(C)n2C", "activation": "inactive: 8.25%"}, {"smiles": "c1ccc(CN2COc3c(ccc4c5c(ccc34)CN(Cc3ccccc3)CO5)C2)cc1", "activation": "inconclusive: -17.1%"}, {"smiles": "O=S(=O)(O)n1ccnc1", "note": "(tested in a mixture with another compound)", "activation": "inconclusive: 14.3%"}]}]}
